# Laboratory results from PubChem BioAssay AID463173 (ICCB-Longwood Screening Facility, Harvard Medical School, 2010).
# In all, about 52,000 compounds went through this assay and about 4,300 (8.3%) were called active. No stated cut-off is given here; in the data, active means survival mostly below about 52% (no sharp cut-off); inactive means mostly above about 56%. The list shows a part of the results.
# System: DeltatarO mutant
# Assay: S. aureus survival, RN4220 and DeltatarO strains – OD600, teichoic acid synthesis inhibitors, primary screen (AID 463173)
# Settings: S. aureus RN4220 wild type/DeltatarO growth, OD600, 18 h, active compounds read low, screened at 18.75 µg/mL (by protocol)
row,Compound,survival
1,CCc1ccc(NC(=O)c2cc(S(=O)(=O)NC3CCCC3)ccc2F)cc1,inactive: 120%
2,COc1ccccc1CNC(=O)c1ccccc1NC(=O)c1nsc2ccccc12,inactive: 81%
3,CCOC(=O)c1[nH]c2ccccc2c1NC(=O)c1ccccc1OCC,inactive: 68%
4,Cc1ccc(-n2nc3ccc(NC(=O)c4oc5ccccc5c4C)cc3n2)cc1,active: 31%
5,O=C1COc2ccccc2N1Cc1c(F)cccc1Cl,inactive: 79%
6,O=C(Nc1ccc2c(c1)CCCN2C(=O)c1cccs1)c1cccc(C(F)(F)F)c1,inactive: 102%
7,Cc1ccc(S(=O)(=O)N(CC(=O)Nc2ccc(C(C)C)cc2)Cc2ccccc2)cc1,inactive: 54%
8,CC(=O)N1c2ccc(S(=O)(=O)NCC3CCC(C(=O)NC(C)(C)C)CC3)cc2CC1C (centres undefined),inactive: 92%
9,Cc1ccccc1NC(=O)CCC(=O)N1CCSc2ccccc21,inactive: 72%
10,O=C(NCC(c1cccs1)S(=O)(=O)c1cccs1)c1ccccc1F (centres undefined),inactive: 101%
11,Clc1ccccc1N1CCN(c2ncnc3c2c(-c2ccccc2)cn3-c2ccccc2)CC1,inactive: 80%
12,CCN(CC)c1nn2c(=O)c(C(=O)NCc3ccc(OC)cc3OC)cnc2s1,inactive: 75%
13,O=C(NCc1ccc(Cl)cc1)C(=O)NCC(c1cccs1)S(=O)(=O)c1ccc(Cl)cc1 (centres undefined),inactive: 85%
14,CCCNC(=O)c1ccc2c(c1)N=C(C)c1c(C)ccc(C)c1S2,inactive: 61%
15,CCOc1ccc(CCNC(=O)C2CCN(c3ncnc4c3nc3n4CCCCC3)CC2)cc1,inactive: 91%
16,CCOC(=O)C1CCN(C(=O)c2cc3ccc4cccnc4c3[nH]2)CC1,inactive: 69%
17,CCN(C(=O)c1noc2c1COc1ccc(C)cc1-2)c1cccc(C)c1,inactive: 54%
18,O=C(Nc1ccccc1F)c1nc(S(=O)(=O)Cc2ccccc2F)ncc1Cl,active: -4%
19,Cc1nc2ccc(Br)cn2c1NC(C)(C)C,inactive: 63%
20,Clc1cccc(-n2ncc3c(NC4CCCCC4)ncnc32)c1,inactive: 99%
21,Cc1cccc(N2CCCC2=Nc2ccc(Br)cc2C#N)c1,inactive: 90%
22,Cc1cccc(N2CCN(C(=O)c3cc(S(=O)(=O)N4CCC(C)CC4)cn3C)CC2)c1C,inactive: 58%
23,CC(C)(C)OC(=O)N1CCC(c2c(C(=O)NCCN3CCC(Cc4ccccc4)CC3)cnn2-c2cccc(Cl)c2)CC1,inactive: 79%

row,Compound,survival
1,O=C(Nc1cccc(Cl)c1Cl)c1cc(S(=O)(=O)N2CCCCC2)ccc1F,inactive: 72%
2,COc1ccc(CCNC(=O)C2CC(=O)N(CCc3ccccc3)C2)cc1OC (centres undefined),inactive: 112%
3,Cc1ccc(C)c(Cn2c(=O)n(-c3ccc(Cl)cc3)c(=O)c3c4c(sc32)CCC4)c1,inactive: 144%
4,COCCCNC(=O)c1ccc(CSc2nc3cccnc3n2Cc2ccc(OC)cc2)cc1,inactive: 107%
5,Cc1cc(C)c(S(=O)(=O)Nc2ccc3oc4c(c3c2)CCCC4)cc1C,inactive: 55%
6,COc1nc(C)c(/C=C/C(=O)N(C(=O)NC2CCCCC2)C2CCCCC2)c(OC)n1,inactive: 58%
7,CC(CNC(=O)CCn1c(=O)c2cccn2c2ccc(F)cc21)c1ccccc1 (centres undefined),active: 34%
8,CCOC(=O)c1ccccc1NC(=O)CSc1c(C)cnc2c1c(=O)n(C)c(=O)n2C,inactive: 80%
9,NC(=O)CSc1nnc(CNc2ccc(Cl)cc2)n1Cc1ccccc1,inactive: 96%
10,Cc1nc2c(c(C)c1CCC(=O)N1CCN(c3ccccc3)CC1)c(=O)n(C)c(=O)n2C,inactive: 106%
11,COc1ccc(C2C=C(c3ccccc3)Nc3nc(NS(=O)(=O)c4ccccc4)nn32)cc1 (centres undefined),active: 25%
12,Cc1ccc(-c2cn3c(n2)sc2cc(C(=O)NCCC4=CCCCC4)ccc23)c(C)c1,inactive: 88%
13,CCOc1ccc(S(=O)(=O)NCC(c2ccc(N(C)C)cc2)N2CCCC2)cc1 (centres undefined),inactive: 107%
14,O=C(COc1ccc(F)cc1)Nc1ccc2nc(SCC(=O)N3CCCC3)sc2c1,inactive: 91%
15,CCOc1ccc(NC(=O)C2CCN(C(=O)Cc3ccccc3)CC2)cc1,inactive: 75%
16,COc1ccccc1N1CCN(C2C(=O)c3ccccc3N2C(C)=O)CC1 (centres undefined),inactive: 95%
17,CCOc1ccc(-c2nnc(SCC(=O)Nc3ccccc3C(F)(F)F)o2)cc1,inactive: 62%
18,Cc1ccc(N2C(=O)C(CC(=O)Nc3ccc(F)cc3)N(CCC3=CCCCC3)C2=O)cc1 (centres undefined),active: 55%
19,CCCCN1CC(c2nc3ccccc3n2CCCCOc2ccccc2C)CC1=O (centres undefined),active: 34%
20,COc1ccc(OC)c(S(=O)(=O)NCCc2sc(-c3cccnc3)nc2C)c1,inactive: 87%
21,CCCN(Cc1cccs1)C(=O)Nc1cc(C)ccc1OC,inactive: 55%
22,O=C(c1ccc2c(c1)N(Cc1ccc(Cl)cc1)C(=O)c1ccccc1S2(=O)=O)N1CCCCCC1,inactive: 64%
23,CCc1nn(CC(=O)Nc2ccc(C)c(F)c2)c(=O)c2cc3cc(C)ccc3n12,inactive: 98%

row,Compound,survival
1,COc1ccc(OC)c(CNC(=O)C2CCN(S(=O)(=O)N3CCCCC3)CC2)c1,inactive: 79%
2,Cc1ccc(-c2onc(C)c2C)cc1S(=O)(=O)NCc1cccs1,inactive: 91%
3,COc1ccccc1N1CCN(c2nc3ccc(C(=O)c4ccccc4)cc3n3c(C)nnc23)CC1,active: 46%
4,CCC(C(=O)NC1CCCC1)N(C(=O)c1snc(C(N)=O)c1N)c1ccccc1 (centres undefined),inactive: 73%
5,Cc1ccc(NC(=O)c2nc(S(C)(=O)=O)ncc2N(Cc2ccco2)Cc2ccccc2F)c(C)c1,active: 37%
6,CCN(Cc1ccccc1)C(=O)CCS(=O)(=O)c1cc2c(cc1Cl)NC(=O)CO2,inactive: 91%
7,Cc1nc2scc(C)n2c(=O)c1S(=O)(=O)Nc1cccc(O)c1,inactive: 83%
8,NCCC(=O)N1c2ccccc2Sc2ccc(Cl)cc21,inactive: 87%
9,CCOc1ccc(OCC)c(NC(=O)c2nnn(Cc3cc(Br)ccc3OC)c2N)c1,inactive: 61%
10,COCCCNC(=O)c1cn(CC(C)C)c(=O)c2c1c1ccccc1n2C,inactive: 65%
11,COc1cc(OC)c(NS(=O)(=O)c2cc3c(cc2C)NC(=O)CO3)cc1Cl,inactive: 88%
12,CC(=O)c1ccc(N2CCN(C(=O)C3CCN(S(=O)(=O)c4ccc(Br)s4)CC3)CC2)cc1,inactive: 94%
13,COCCn1c(CNC(=O)c2cccc(N(C)C)c2)nc2cccnc21,inactive: 65%
14,COc1ccc2oc(=O)c(-c3nc(-c4cc(OC)c(OC)c(OC)c4)no3)cc2c1,inactive: 89%
15,O=C(CNS(=O)(=O)c1cccs1)N1CCN(c2ccccc2Cl)CC1,active: 45%
16,O=C(Cn1cc(SCc2cccc(F)c2)c2ccccc21)N1CCCC1,inactive: 56%
17,O=C(NC1CCCCCC1)c1ccc(Cl)c(S(=O)(=O)N2CCOCC2)c1,inactive: 86%
18,Cc1ccc(C(=O)Nc2ccc3nc(SCC(=O)N4CCc5ccccc54)sc3c2)cc1,inactive: 88%
19,Cc1ccc2c(CNCc3cccc(Cl)c3)c(C(=O)O)n(Cc3ccc(F)cc3Cl)c2c1,inactive: 70%
20,Cc1cc2oc(C(=O)Nc3sc4c(c3C(=O)NCc3ccco3)CCC4)cc(=O)c2cc1C,active: 38%
21,CCOC(=O)c1ccc(CN(Cc2ccc(F)cc2)S(=O)(=O)c2ccc(F)cc2)cc1,inactive: 87%
22,O=C(Nc1ccc(C(F)(F)F)cc1)c1cc(S(=O)(=O)NC2CCCCCC2)ccc1F,active: 25%
23,CCCOc1ccc(C2c3c(oc4ccccc4c3=O)C(=O)N2c2ccc(C)cn2)cc1OCC (centres undefined),inactive: 73%

row,Compound,survival
1,CCOC(=O)c1c(C)[nH]c(C)c1S(=O)(=O)N1CCC(C(=O)N2CCN(c3cccc(C)c3)C(C)C2)CC1 (centres undefined),inactive: 113%
2,Cc1ccc(C)c(NC(=O)Nc2nnc(N(CC(C)C)CC(C)C)s2)c1,inactive: 85%
3,Cc1ccc(CCNC(=O)c2ccc3c(=O)n(-c4ccc(C)cc4)c(=O)[nH]c3c2)cc1,inactive: 82%
4,Cc1ccccc1S(=O)Cc1ccc(C(=O)NC2CCCCCC2)o1 (centres undefined),inactive: 80%
5,CCOc1cccc2sc(NC(=O)c3ccc(S(=O)(=O)N4CCCc5ccccc54)cc3)nc12,inactive: 74%
6,Cc1ccc(C)c(NC(=O)C(CC(C)C)N2Cc3ccccc3C2=O)c1 (centres undefined),inactive: 134%
7,Cc1cc(C)c2c(c1)c(C)cc1nnc(SCC(=O)c3ccccc3)n12,inactive: 75%
8,O=C(CSc1nccn1Cc1ccc(F)cc1)NCc1ccco1,inactive: 94%
9,CCCN1Cc2cccc(C(=O)Nc3cc(Cl)ccc3C)c2C1=O,inactive: 95%
10,CC(C)(C)c1ccc(C(=O)Nc2ccc(-c3nc4ccccc4o3)c(O)c2)cc1,inactive: 69%
11,O=C(CN1C(=O)c2ccccc2Sc2ccc(C(=O)N3CCOCC3)cc21)Nc1ccc(Cl)cc1F,inactive: 94%
12,CCOc1ccc(-c2nnc(SCC(=O)Nc3cccc(C#N)c3)o2)cc1,active: 48%
13,CCCCOC(=O)c1c(C)oc2c1cc(NS(=O)(=O)c1cc(OC)ccc1OC)c1ccccc12,inactive: 68%
14,CC1CCN(C(=O)Cn2c(-c3cccs3)cc3cc(Cl)ccc32)CC1,inactive: 78%
15,COc1cccc(NC(=O)Nc2ccc3c(c2)N(C)C(=O)c2ccccc2S3)c1,inactive: 51%
16,COc1ccc(-c2c(C)c3ccc(O)c(CN4CCOCC4)c3oc2=O)cc1OC,inactive: 129%
17,CCOc1ccc(-c2cc3c(=O)n(CC(=O)NCc4ccc(F)cc4)ccn3n2)cc1,inactive: 80%
18,COc1cccc2cc(-c3nc(-c4ccc(Cl)cc4)cs3)c(=O)oc12,inactive: 83%
19,CCOC(=O)c1cccc(NC(=O)CCS(=O)(=O)c2ccc3c(c2)CCN3C(=O)CC)c1,inactive: 85%
20,O=C(c1ccc(Cl)cc1)n1nc(-c2cccnc2)nc1NCc1ccc(F)cc1,active: 43%
